The values that follow come from the supplement of paper PMC4604168 (melanoma cell lines).

The list shows a part of the results. Repeats are few or missing, and single values can be far off.
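Also: cell number obtained by counting DAPI-stained nuclei in high-throughput microscope images with image analysis software, screen run in 1,536-well plates.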

The subject of the first experiment is IPC-298. Nature of the experiment: cell count relative to DMSO control; melanoma cells; higher = more viable cells. Particulars: library dose: low library concentration; 72 h.
On to `Nc1nc(F)nc2c1ncn2[C@@H]1O[C@H](CO)[C@@H](O)[C@@H]1O` [fludarabine] + CN(NC(=O)CC(=O)NN(C)C(=S)c1ccccc1)C(=S)c1ccccc1 [STA4783] (first compound 0.2 µM, partner dose 0.006 µM), for which the cell count is 89.1%.

On to `Nc1ncn([C@H]2C[C@H](O)[C@@H](CO)O2)c(=O)n1` [decitabine] + c1cc(-c2cnn3cc(-c4ccc(OCCN5CCCCC5)cc4)cnc23)ccn1 [Dorsomorphin] (first compound 0.1 µM, partner dose 0.4 µM), for which the cell count stood at 80%.

As to `CC(=O)c1c(C)c2cnc(Nc3ccc(N4CCNCC4)cn3)nc2n(C2CCCC2)c1=O` [palbociclib] + COc1cc(N2CCC(N3CCN(C)CC3)CC2)ccc1Nc1ncc(Cl)c(Nc2ccccc2S(=O)(=O)C(C)C)n1 [NVP-TAE684] (first compound 0.04 µM, partner dose 0.08 µM), the cell count amounted to 80.3%.

Compound `CC(=O)O[C@@]12CO[C@@H]1C[C@H](O)[C@@]1(C)C(=O)[C@H](O)C3=C(C)[C@@H](OC(=O)[C@H](O)[C@@H](NC(=O)OC(C)(C)C)c4ccccc4)C[C@@](O)([C@@H](OC(=O)c4ccccc4)[C@H]21)C3(C)C` [Docetaxel] + CCCCCCCCCCCC1=C(O)C(=O)C=C(O)C1=O [Embelin] (first compound 0.0001 µM, partner dose 1.2 µM) displayed a cell count of 58.3%.

Compound `Nc1nc(F)nc2c1ncn2[C@@H]1O[C@H](CO)[C@@H](O)[C@@H]1O` [fludarabine] + NCC(=O)Nc1ccc(-n2nc(C(F)(F)F)cc2-c2ccc3c(ccc4ccccc43)c2)cc1 [OSU03012] (first compound 0.2 µM, partner dose 1 µM) came in with a cell count of 83.2%.

`Nc1ccn([C@@H]2O[C@H](CO)[C@@H](O)C2(F)F)c(=O)n1` [gemcitabine] + COc1cc(Nc2ncc(F)c(Nc3ccc4c(n3)NC(=O)C(C)(C)O4)n2)cc(OC)c1OC [Tamatinib] (first compound 0.0004 µM, partner dose 0.4 µM): the cell count was determined as 56.6%.

As for `Nc1nc(F)nc2c1ncn2[C@@H]1O[C@H](CO)[C@@H](O)[C@@H]1O` [fludarabine] + COc1cc(N2CCC(N3CCN(C)CC3)CC2)ccc1Nc1ncc(Cl)c(Nc2ccccc2S(=O)(=O)C(C)C)n1 [NVP-TAE684] (first compound 0.2 µM, partner dose 0.08 µM), the cell count came out at 99.4%.

In turn, `Nc1ncn([C@H]2C[C@H](O)[C@@H](CO)O2)c(=O)n1` [decitabine] + COc1cc(Nc2ncc(F)c(Nc3ccc4c(n3)NC(=O)C(C)(C)O4)n2)cc(OC)c1OC [Tamatinib] (first compound 0.1 µM, partner dose 0.4 µM) showed a cell count of 66.2%.

On to `Nc1ccn([C@@H]2O[C@H](CO)[C@@H](O)C2(F)F)c(=O)n1` [gemcitabine] + Cc1ccc(NC(=O)c2cccc(N(C)C)c2)cc1NC(=O)c1ccc(O)cc1 [ZM336372] (first compound 0.0004 µM, partner dose 2 µM), for which the cell count came out at 73.2%.

For `Nc1ncn([C@H]2C[C@H](O)[C@@H](CO)O2)c(=O)n1` [decitabine] + NCC(=O)Nc1ccc(-n2nc(C(F)(F)F)cc2-c2ccc3c(ccc4ccccc43)c2)cc1 [OSU03012] (first compound 0.1 µM, partner dose 1 µM), the cell count came to 67.1%.

The next experiment concerns IST-MEL1. The experiment is described as above. Particulars: library dose: low library concentration; 72 h.
For `Nc1ncn([C@H]2C[C@H](O)[C@@H](CO)O2)c(=O)n1` [decitabine] + CC(C)CCN1c2nc(Nc3cc(F)c(O)c(F)c3)ncc2N(C)C(=O)C1C [BID1870] (first compound 0.1 µM, partner dose 0.2 µM), the cell count was 90.5%.

The compound `Nc1ccn([C@@H]2O[C@H](CO)[C@@H](O)C2(F)F)c(=O)n1` [gemcitabine] + CC(C)CCN1c2nc(Nc3cc(F)c(O)c(F)c3)ncc2N(C)C(=O)C1C [BID1870] (first compound 0.0004 µM, partner dose 0.2 µM) showed a cell count of 66.7%.

In the case of `Nc1ncn([C@H]2C[C@H](O)[C@@H](CO)O2)c(=O)n1` [decitabine] + CC1(C)NC(=O)N(c2ccc([N+](=O)[O-])c(C(F)(F)F)c2)C1=O [nilutamide] (first compound 0.1 µM, partner dose 1 µM), the cell count came out at 88.5%.

Take `CC(=O)O[C@@]12CO[C@@H]1C[C@H](O)[C@@]1(C)C(=O)[C@H](O)C3=C(C)[C@@H](OC(=O)[C@H](O)[C@@H](NC(=O)OC(C)(C)C)c4ccccc4)C[C@@](O)([C@@H](OC(=O)c4ccccc4)[C@H]21)C3(C)C` [Docetaxel] + CCc1ccc(CCOc2ccc(CC3SC(=O)NC3=O)cc2)nc1 [pioglitazone] (first compound 0.0001 µM, partner dose 2 µM): the cell count came to 76.7%.

With `Nc1ncn([C@H]2C[C@H](O)[C@@H](CO)O2)c(=O)n1` [decitabine] + Cc1cc(N2CCOCC2)cc2[nH]c(-c3c(NC[C@@H](O)c4cccc(Cl)c4)cc[nH]c3=O)nc12 [BMS536924] (first compound 0.1 µM, partner dose 0.2 µM), the cell count came to 96.1%.

In turn, `Nc1ncn([C@H]2C[C@H](O)[C@@H](CO)O2)c(=O)n1` [decitabine] + O=S(=O)(c1ccccc1)N(CC(F)(F)F)c1ccc(C(O)(C(F)(F)F)C(F)(F)F)cc1 [T0901317] (first compound 0.1 µM, partner dose 1.4 µM) displayed a cell count of 89.2%.

For the compound `Nc1ncn([C@H]2C[C@H](O)[C@@H](CO)O2)c(=O)n1` [decitabine] + COc1cc(N2CCC(N3CCN(C)CC3)CC2)ccc1Nc1ncc(Cl)c(Nc2ccccc2S(=O)(=O)C(C)C)n1 [NVP-TAE684] (first compound 0.1 µM, partner dose 0.08 µM), the cell count came out at 88.4%.

In the case of `CC(=O)c1c(C)c2cnc(Nc3ccc(N4CCNCC4)cn3)nc2n(C2CCCC2)c1=O` [palbociclib] + Oc1nc(-c2ccc(C(F)(F)F)cc2)nc2c1CSCC2 [XAV939] (first compound 0.04 µM, partner dose 2 µM), the cell count is 82.4%.

On to `Nc1ccn([C@@H]2O[C@H](CO)[C@@H](O)C2(F)F)c(=O)n1` [gemcitabine] + O=c1cc(-c2cccc3c2Sc2ccccc2S3)oc(N2CCOCC2)c1 [KU55933] (first compound 0.0004 µM, partner dose 1 µM), for which the cell count is 72.8%.

`Nc1ncn([C@H]2C[C@H](O)[C@@H](CO)O2)c(=O)n1` [decitabine] + N#Cc1c(O)c2c(-c3ccc(-c4ccccc4O)cc3)csc2[nH]c1=O [A769662] (first compound 0.1 µM, partner dose 2 µM) had a cell count of 87.6%.

Consider `Nc1nc(F)nc2c1ncn2[C@@H]1O[C@H](CO)[C@@H](O)[C@@H]1O` [fludarabine] + CN(C)S(=O)(=O)c1ccc2c(c1)/C(=C/c1cc3c([nH]1)CCCC3)C(=O)N2 [SU6656] (first compound 0.2 µM, partner dose 0.4 µM), for which the cell count was 79.8%.

With `Nc1ncn([C@H]2C[C@H](O)[C@@H](CO)O2)c(=O)n1` [decitabine] + CCc1ccc(CCOc2ccc(CC3SC(=O)NC3=O)cc2)nc1 [pioglitazone] (first compound 0.1 µM, partner dose 2 µM), the cell count turned out to be 80.7%.

With `CC(=O)c1c(C)c2cnc(Nc3ccc(N4CCNCC4)cn3)nc2n(C2CCCC2)c1=O` [palbociclib] + CN(NC(=O)CC(=O)NN(C)C(=S)c1ccccc1)C(=S)c1ccccc1 [STA4783] (first compound 0.04 µM, partner dose 0.006 µM), the cell count was found to be 76.3%.

`CC(=O)O[C@@]12CO[C@@H]1C[C@H](O)[C@@]1(C)C(=O)[C@H](O)C3=C(C)[C@@H](OC(=O)[C@H](O)[C@@H](NC(=O)OC(C)(C)C)c4ccccc4)C[C@@](O)([C@@H](OC(=O)c4ccccc4)[C@H]21)C3(C)C` [Docetaxel] + CS(=O)(=O)CCNCc1ccc(-c2ccc3ncnc(Nc4ccc(OCc5cccc(F)c5)c(Cl)c4)c3c2)o1 [lapatinib] (first compound 0.0001 µM, partner dose 0.8 µM): the cell count was found to be 56.4%.

Compound `CC(=O)O[C@@]12CO[C@@H]1C[C@H](O)[C@@]1(C)C(=O)[C@H](O)C3=C(C)[C@@H](OC(=O)[C@H](O)[C@@H](NC(=O)OC(C)(C)C)c4ccccc4)C[C@@](O)([C@@H](OC(=O)c4ccccc4)[C@H]21)C3(C)C` [Docetaxel] + c1cc(-c2cnn3cc(-c4ccc(OCCN5CCCCC5)cc4)cnc23)ccn1 [Dorsomorphin] (first compound 0.0001 µM, partner dose 0.4 µM) registered a cell count of 63.5%.

In the case of `CO[C@H]1C[C@@H]2CC[C@@H](C)[C@@](O)(O2)C(=O)C(=O)N2CCCC[C@H]2C(=O)O[C@H]([C@H](C)C[C@@H]2CC[C@@H](OCCO)[C@H](OC)C2)CC(=O)[C@H](C)/C=C(\C)[C@@H](O)[C@@H](OC)C(=O)[C@H](C)C[C@H](C)/C=C/C=C/C=C/1C` [everolimus] + COc1cc2ncnc(Nc3ccc(Oc4ccccc4)cc3)c2cc1OC [SrcI1] (first compound 0.02 µM, partner dose 2 µM), the cell count came to 84.2%.

In the case of `Nc1ncn([C@H]2C[C@H](O)[C@@H](CO)O2)c(=O)n1` [decitabine] + COC(=O)c1sccc1S(=O)(=O)Nc1ccc(Nc2ccccc2)cc1OC [GSK0660] (first compound 0.1 µM, partner dose 1 µM), the cell count is 94%.

Compound `Nc1nc(F)nc2c1ncn2[C@@H]1O[C@H](CO)[C@@H](O)[C@@H]1O` [fludarabine] + CCN(CC)CCCCNc1ncc2cc(-c3cc(OC)cc(OC)c3)c(NC(=O)NC(C)(C)C)nc2n1 [PD173074] (first compound 0.2 µM, partner dose 0.1 µM) yielded a cell count of 84.6%.
